# Laboratory results from PubChem BioAssay AID624418 (National Center for Advancing Translational Sciences (NCATS), 2012).
# Hit rate of the full screen: of about 410,000 compounds, about 530 (0.13%) were called active. Inconclusive means that the source gave no clear call. Such entries were picked first, then a sample of the others. Calls come from the whole dose curve; as a rule, active = well fitted inhibition curve with a large enough effect; inconclusive = small, poorly fitted or top-dose-only effect, or another doubt; inactive = no such curve, though single readings can be large or run the other way. Where the call is inconclusive, the potency comes from a doubtful curve fit.
# Assay: qHTS of GLP-1 Receptor Inverse Agonists: Cytotox Screen
# Settings: HEK293 cAMP-luciferase reporter cells, luminescence, 24 h; activity change, negative = inhibition: at 38.3 µM (top of the series) unless noted
# Method in brief: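 Quantitative HTS format, 1536 wells, 200 cells/uL seeded. Compounds: 23 nL, 24 h, 37 °C. Detection: luciferase reagent, luminescence at 12 min RT; decreased signal taken as cytotoxic.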
# % is set by controls: 0 for no effect and ±100 for the full control effect; potency is the fitted concentration of half-maximal effect.
SMILES,Potency,"activity change, negative = inhibition"
CCOC(=O)c1c(NC(=O)COc2ccccc2OCC)sc2c1CC(C)(C)NC2(C)C,"inconclusive: 20 µM [inhibitor, single point]",
COc1ccc(/C=N/Nc2cc(C)nc(-n3nc(C)cc3C)n2)c(OC)c1,"inconclusive: 1 µM [inhibitor, full curve, poor fit]",
O=C(Nc1cccc(Cl)c1)OCCOC(=O)Nc1cccc(Cl)c1,"inconclusive: 17.8 µM [inhibitor, single point]",
Cc1[nH]n(C(N)=S)c(=O)c1N=Nc1ccc(Cl)cc1Cl,"inconclusive: 0.501 µM [inhibitor, full curve, poor fit]",
C[C@H](c1ccccc1)N1C[C@@H](COCc2ccccc2)Oc2cc(N3CC[C@@H](O)C3)ccc2S1(=O)=O,,inactive: -12.9%
COc1ccc(OC)c(NC(=O)c2cccc(N3C(=O)C4C5C=CC(C6CC56)C4C3=O)c2)c1 (configuration not stated),,inactive: -19.4%
Cc1ccc(Nc2nc(-c3ccc(O)cc3O)cs2)nc1,"inconclusive: 28.2 µM [inhibitor, single point]",
Nc1nc(CN2CCN(c3ccccc3)CC2)nc(Nc2ccc(Cl)cc2)n1,"inconclusive: 28.2 µM [inhibitor, single point]",
CCCC(NC(=S)NCC1CCCO1)C12CC3CC(CC(C3)C1)C2 (configuration not stated),"inconclusive: 3.16 µM [inhibitor, full curve]",
O=C(CN1C(=O)NC2(CCCC2)C1=O)Nc1ccc(C(F)(F)F)cc1,"inconclusive: 10 µM [inhibitor, partial curve, poor fit]",
Cn1nnnc1Sc1ncnc2scc(-c3ccccc3)c12,"inconclusive: 14.1 µM [inhibitor, single point]",
COc1ccc(C)cc1N(C(=O)c1ccccc1)c1nc2ccccc2s1,,inactive: -6.5%
COc1ccc(NC(=O)c2cc(-c3ccc(F)cc3OC(C)C)n[nH]2)c(OC)c1,"inconclusive: 7.94 µM [inhibitor, partial curve, poor fit]",
CN(C)C=NC1=NN(c2cccc(C(F)(F)F)c2)CC1,"inconclusive: 28.2 µM [inhibitor, single point]",
COC(=O)c1cc(C(=O)N2CCN(c3ncccn3)CC2)cc([N+](=O)[O-])c1,,inactive: -5.11%
COc1ccc(C(=O)Nc2ccc(N3CCCCCC3)cc2)cc1S(=O)(=O)N1CCOCC1,"inconclusive: 8.91 µM [inhibitor, partial curve, poor fit]",
S=C(Nc1ccc(Cl)cc1Cl)NC1CCN(Cc2ccccc2)CC1,,inactive: -6.65%
CC(=O)Nc1ccccc1N(C)S(=O)(=O)c1ccc(C)cc1,"inconclusive: 7.94 µM [inhibitor, partial curve, poor fit]",
O=C(CSc1nnc(-c2ccccn2)n1-c1ccccc1)Nc1ccc2c(c1)OCO2,"inconclusive: 10 µM [inhibitor, partial curve, poor fit]",
S=c1[nH]ncn1/N=C/c1cccc(Oc2ccccc2)c1,"inconclusive: 10 µM [inhibitor, partial curve, poor fit]",
Cc1ccc(S(=O)(=O)NCC(c2ccco2)N2CCc3ccccc32)cc1 (configuration not stated),,inactive: 1.76%

SMILES,Potency,"activity change, negative = inhibition"
COC(=O)N1C(=O)[C@](c2ccc(OC)cc2)(C(C)C)N1C(=O)OC,"inconclusive: 2.51 µM [inhibitor, full curve, poor fit]",
Cc1c(C(=O)Nc2ccc(F)c(Cl)c2)sc2nc3n(c(=O)c12)CCC3,,inactive: -1.44%
C/C(=N\Nc1ncc(Cl)cc1Cl)c1ccc(N2CCOCC2)cc1,"inconclusive: 1.12 µM [inhibitor, partial curve, poor fit]",
Cc1cc(Br)cnc1NC(=S)Nc1ccc(F)cc1F,"inconclusive: 11.2 µM [inhibitor, single point]",
COc1ccc(C2=NOC(C(=O)NCc3cccs3)C2)cc1 (configuration not stated),"inconclusive: 3.16 µM [inhibitor, full curve]",
Cc1ccc(C(NC(=O)C2CCN(Cc3ccc(Cl)c(Cl)c3)CC2)c2ccccn2)cc1 (configuration not stated),"inconclusive: 28.2 µM [inhibitor, single point]",
Cc1ccc(-n2c(CCc3ccccc3)n[nH]c2=S)cc1C,"inconclusive: 22.4 µM [inhibitor, single point]",
COc1cc(C2(c3ccc(O)c(OC)c3)C(=O)Nc3c(C)cc(Br)cc32)ccc1O,"inconclusive: 11.2 µM [inhibitor, single point]",
COc1ccc(CN(C)C(=O)c2cc(-c3ccccc3)nc3ccc(C)cc23)c(OC)c1,"inconclusive: 28.2 µM [inhibitor, single point]",
COC(=O)c1cc(N=Nc2c(C)[nH]c3ccccc23)cc(C(=O)OC)c1,,inactive: 4.59%
CCOC(=O)c1c(C)oc2c1c1c(c3ccccc32)OCN(Cc2ccccn2)C1,"inconclusive: 12.6 µM [inhibitor, single point]",
CCOC(=O)CNC(=S)n1cnc(N)n1,"inconclusive: 28.2 µM [inhibitor, single point]",
Cc1ccc(C)c(N2CCN(S(=O)(=O)c3ccc(C(=O)N(C)C)s3)CC2)c1,,inactive: -15.8%
O=C(NCc1ccccn1)c1cc(Cl)ccc1OCc1ccccc1,,inactive: 0.765%
C=C(C)C1Cc2c(C)nn(-c3cccc4ccccc34)c2C1 (configuration not stated),"inconclusive: 28.2 µM [inhibitor, single point]",
COc1ccc(NC(=O)CC2C(=O)N(c3cccc(OC)c3)C(=O)N2CCC2=CCCCC2)cc1 (configuration not stated),,inactive: -11.7%
CCN(CC)CCNc1ncnc2c1sc1nc(N3CCCC3)c3c(c12)CC(C)(C)OC3,"inconclusive: 14.1 µM [inhibitor, single point]",
Cc1cccc(-n2c(-c3ccoc3C)n[nH]c2=S)c1,"inconclusive: 31.6 µM [inhibitor, single point]",
O=C(COc1ccccc1-c1ccccc1)N/N=C/c1ccc2ccccc2c1,"inconclusive: 0.891 µM [inhibitor, full curve, poor fit]",
Cc1nc(-c2ccccc2)sc1C(=O)NS(=O)(=O)c1ccc(CN2CCN(c3ccccc3)CC2)cc1,,inactive: -5.46%
COc1ccccc1NC(=S)NCc1ccccc1Cl,"inconclusive: 22.4 µM [inhibitor, single point]",
